Molecules are shown by their SMILES. The whole screen tested about 48,000 compounds, of which about 120 (0.25%) were called active. About 4% were inconclusive and are not listed. Calls come from the whole dose curve; as a rule, active = well fitted activation curve with a large enough effect; inconclusive = small, poorly fitted or top-dose-only effect, or another doubt; inactive = no such curve, though single readings can be large or run the other way. This is one part of the list.

The text below walks through data of PubChem BioAssay AID1508624 (National Center for Advancing Translational Sciences (NCATS), 2021).

The test is described as follows: Primary qHTS for Identification of Small Molecule Activators of Huntingtin-Antisense Promoter Activity. Note: nearly all actives have a fitted effect of over 55% in size. The conditions noted are these: HEK293 HTT-AS promoter firefly luciferase reporter (activity 0% = vehicle and -100% = no light), 24 h; series mostly up to 57.5 µM; activity change, positive = activation: at the top concentration. Summed up:
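Firefly luciferase readout (Dual-Glo, 10 min RT) after 24 h, 37 °C compound exposure (final up to 57.5 uM) of HEK293 reporter cells cultured 24 h beforehand; PTC124 at 50 uM final as control inhibitor; activity scaled vehicle 0%, zero RLU -100%.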
`CCOC(=O)c1ccc(N2C(=O)c3[nH]nc(-c4ccc(C)cc4)c3C2c2ccc(O)c(OCC)c2)cc1` (configuration not stated): the “activity change, positive = activation” value was inactive: -49.7%. Regarding `COc1cc2c(=O)c(C(=O)c3ccc(C)c(C)c3)cn(Cc3ccccc3F)c2cc1OC`, the “activity change, positive = activation” value was inactive: -33.3%.

On to `Cc1ccccc1-c1nnn(CC(=O)Nc2sc3c(c2C#N)CCC(C(C)(C)C)C3)n1` (configuration not stated), for which the “activity change, positive = activation” value is inactive: -12.8%. With `CCc1ccc(NC(=O)Cn2c(=O)n(CCCCC(=O)NCCc3ccc(Cl)cc3)c(=O)c3ccccc32)cc1`, the “activity change, positive = activation” value was inactive: -2.33%. As to `Cc1ccc2ncc(C(=O)Nc3ccc(OC(F)(F)F)cc3)c(=O)n2c1`, the “activity change, positive = activation” value is inactive: 0.686%. The figure for `O=c1[nH]c2ccc(NCc3ccc(-c4ccc(Br)cc4)o3)cc2[nH]1` is inactive: -20.4%.

Take `CCOC(=O)c1c(NC(=O)c2nc(S(C)(=O)=O)ncc2Cl)sc(C(C)=O)c1C`: the “activity change, positive = activation” value is inactive: 1.81%.

Consider `O=C1CCCc2cc(S(=O)(=O)N3CCCC(C(=O)NCc4ccc(Cl)cc4)C3)ccc2N1` (configuration not stated), for which the “activity change, positive = activation” value is inactive: -32.7%. Turning to `COc1cc(OC)cc(-c2nc(-c3ccc4c(c3)[nH]c(=O)n4C)no2)c1`, the “activity change, positive = activation” value is inactive: -11.5%. For the molecule `O=C(NCC(c1ccc(Cl)cc1)N1CCOCC1)c1ccccc1F` (configuration not stated), the “activity change, positive = activation” value was inactive: -2.89%. The figure for `CCOc1ccc(-c2nnc(SCC(=O)Nc3cccc(OC)c3)nc2-c2ccc(OCC)cc2)cc1` is inactive: -13%; for `CCS(=O)(=O)CCn1c([N+](=O)[O-])cnc1C` it is inactive: -12.7%; for `COc1cccc(C2CC(=O)Nc3c2c(=O)[nH]c2nc4ccccc4n32)c1` (configuration not stated) it is inactive: -9.62%. The figure for `COc1ccc(C(=O)NCC(c2ccc3c(c2)OCO3)N2CCN(c3ccccc3F)CC2)cc1` (configuration not stated) is inactive: -37.9%. In the case of `O=C1CCc2cc(OCCCCc3nnnn3C3CCCCC3)ccc2N1` it was “inactive”; in that of `O=C(COc1ccc([N+](=O)[O-])cc1)Nc1nc2c(s1)CCCC2`, inactive: -8.24%; in that of `CCCn1c2ccccc2c2cnn(CC(=O)N3CCN(c4ccccc4)CC3)c(=O)c21`, inactive: -10.6%. Consider `Cc1cccc(CSc2ncc(Cl)c(C(=O)Nc3nc4ccc(F)cc4s3)n2)c1`, for which the “activity change, positive = activation” value was inactive: -16.3%.

With `Cc1ccc2nc3c(cc(C#N)c(=O)n3-c3nnc(SCc4ccccc4)s3)c(=O)n2c1`, the “activity change, positive = activation” value was inactive: 15.8%. The figure for `COc1cc(NC(=O)Cn2cc(C(=O)c3ccc(F)cc3)c(=O)c3ccc(C)nc32)cc(OC)c1` is inactive: -36.9%; for `O=C(Cn1c(=O)nc(-c2ccccc2)c2cc(Cl)ccc21)Nc1ccc(F)c(Cl)c1` it is inactive: -14.4%; for `COc1cccc(CNC(=O)c2ccc(-n3c(C)cc4c3CCC(C)C4)cc2)c1` (configuration not stated) it is inactive: 3.89%. Turning to `CC(C)NC(=O)c1ccc(NC(=O)N2CCCCc3ccccc32)cc1`, the “activity change, positive = activation” value was inactive: -22.7%. Take `CCOc1cc(C#N)c(NC(=O)Cn2nnc(-c3ccc(C)cc3)n2)cc1OCC`: the “activity change, positive = activation” value was inactive: -17.5%.

Regarding `Cc1ccc(-c2cc(C(=O)NCc3ccccc3Cl)c3ccccc3n2)cc1C`, the “activity change, positive = activation” value is inactive: 15.3%. Regarding `O=C(Nc1ccccc1C(F)(F)F)n1ncc2cc(Cl)ccc21`, the “activity change, positive = activation” value was inactive: 7.65%. The figure for `COc1ccc2cc3c(N)nn(C(=O)c4ccc(OC)c(OC)c4)c3nc2c1` is inactive: -8.9%; for `CCOC(=O)c1[nH]c2ccccc2c1NC(=O)c1ccc(Br)cc1` it is inactive: -14%; for `COc1cccc(CNC(=O)C2CCN(S(=O)(=O)c3ccc4c(c3)CCCN4C(C)=O)CC2)c1` it is inactive: -13.9%. In the case of `Cc1ccc2c(c1)N(CCCC(=O)Nc1cccc(C(F)(F)F)c1)C(=O)CO2` it was inactive: -31.6%; in that of `CCCCOc1cc(C(=O)NCCN(CC)CC)c2ccccc2n1`, inactive: -16.8%; in that of `CCOc1ccc(-c2nc3c(c(SCC(=O)N4CCCCC4)n2)Cc2cccc(OC)c2O3)cc1`, inactive: -25.9%. In the case of `CCCCN1C(=O)C(O)(CC(=O)c2ccc(C(C)(C)C)cc2)c2ccccc21` (configuration not stated), the “activity change, positive = activation” value is inactive: -22.1%.

As to `COc1ccc(NC(=O)c2oc3ccccc3c2NC(=O)COc2ccc(C(C)C)cc2)c(OC)c1`, the “activity change, positive = activation” value was inactive: -18.5%. In the case of `O=C(Nc1ccccc1Cl)c1sc2cccc(Cl)c2c1Cl` it was inactive: 12.7%; in that of `Cc1ccc(N(CC(=O)Nc2ccc(Cl)cc2)S(=O)(=O)c2cccc3nonc23)cc1`, inactive: -1.36%; in that of `CCOc1cc(CNC(=O)CN2CCSc3ccccc32)cc(OCC)c1OCC`, inactive: -26.5%. Take `COc1cccc(NC(=O)Cn2c(=O)n(Cc3ccccc3)c(=O)c3ccccc32)c1`: the “activity change, positive = activation” value is inactive: -1.12%.

`CN1C(C(=O)Nc2ccc(OC(F)(F)F)cc2)=CC(c2cccs2)=NS1(=O)=O`: the “activity change, positive = activation” value was inactive: -28.4%.

In the case of `CCSc1nc2n(n1)C(c1ccc(C(=O)O)cc1)C(C(=O)Nc1ccccc1C)=C(C)N2` (configuration not stated), the “activity change, positive = activation” value was inactive: 2.88%.

Regarding `COc1ccc(-c2nc3c(c(SCC(=O)N4CCCCC4)n2)Cc2cc(Cl)ccc2O3)cc1`, the “activity change, positive = activation” value is inactive: -23.7%.

Turning to `CCC(C)SSc1ncc[nH]1` (configuration not stated), the “activity change, positive = activation” value was inactive: -2.37%. Take `CN(C)c1ccc(CNC(=O)Cn2c(=O)oc3cc(S(=O)(=O)N4CCCCCC4)ccc32)cc1`: the “activity change, positive = activation” value is inactive: -32.8%.

In the case of `Cc1ccc(NC(=O)Cc2coc3ccc(C(C)C)cc23)cc1Cl`, the “activity change, positive = activation” value was inactive: -30.3%. In the case of `CCCS(=O)(=O)c1nc(S(=O)(=O)c2ccc(C)cc2)c(NC)s1` it was inactive: -16.3%. The figure for `COc1ccc(-n2c(=O)[nH]c3cc(C(=O)NCCc4ccccc4)ccc3c2=O)cc1OC` is inactive: -27.1%; for `Cc1ccc(-n2ncc(C(=O)N3CCCCC3)c2C2CCN(C(=O)OC(C)(C)C)CC2)c(C)c1` it is inactive: 0%.
